Assay results from PubChem BioAssay AID2675 (National Center for Advancing Translational Sciences (NCATS), 2010).
Among all 280,000 compounds or so, about 100 (0.036%) were called active. The shares of active, inactive and inconclusive entries below differ from those in the screen. Calls follow the shape of the dose curve; as a rule, active = well fitted inhibition curve with a large enough effect in the signal ratio, with a control signal flat (not every such curve was filed as active); inconclusive = small, poorly fitted or top-dose-only effect, or effect the other way, or a change in a side signal; inactive = no such curve, though single readings can be large or run the other way; the % refers to the signal ratio. A potency beside an inconclusive call is a rough fit, not a confirmed value. A note “side channel” means that the fit belongs to a control or component signal, not to the main read-out.

target: Muscleblind-like protein 1 (Homo sapiens) (UniProt Q9NR56); assay: qHTS Assay for Inhibitors of MBNL1-poly(CUG) RNA binding; settings: TR-FRET MBNL1-His/biotin-(CUG)12 binding, 665/545 ratio; activity change, negative = inhibition: at 57.5 µM (top of the series)
Summary of the method: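 Compounds (final 92 nM to 58 uM) are added to His-tagged MBNL1 and biotin-(CUG)12, then terbium anti-His antibody and streptavidin-XL665 (5 nM final). After 60 min at room temperature, the 665/545 nm ratio is read.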
% is scaled to controls: 0 for no effect and ±100 for the full control effect; potency is read from the fitted curve at half-maximal effect; tags tell the direction and shape of the fitted curve or compound fluorescence and quenching.

Chain of UniProt Q9NR56 (Q9NR56 whole entry, looked up): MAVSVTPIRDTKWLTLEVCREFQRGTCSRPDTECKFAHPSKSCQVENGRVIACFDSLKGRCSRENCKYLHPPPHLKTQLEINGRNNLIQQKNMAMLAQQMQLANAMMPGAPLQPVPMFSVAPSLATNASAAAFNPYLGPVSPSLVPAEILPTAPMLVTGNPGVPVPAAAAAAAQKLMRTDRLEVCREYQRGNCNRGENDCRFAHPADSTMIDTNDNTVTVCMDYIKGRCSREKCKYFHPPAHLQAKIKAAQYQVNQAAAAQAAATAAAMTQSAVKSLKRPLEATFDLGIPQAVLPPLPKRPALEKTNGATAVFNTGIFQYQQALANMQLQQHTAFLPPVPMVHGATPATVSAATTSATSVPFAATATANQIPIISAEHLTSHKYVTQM

Row | Structure (SMILES) | Potency | activity change, negative = inhibition
1 | COc1ccc(CONc2ncnc3nonc23)cc1[N+](=O)[O-] | inconclusive: 15.8 µM [quencher, side channel, partial curve] | 
2 | O=C(NC(=S)NNC(=O)c1ccccc1O)c1ccc([N+](=O)[O-])cc1 |  | inactive: -1.27%
3 | CC1CCN(c2nc3ccccn3c(=O)c2C=O)CC1 | inconclusive: 20 µM [quencher, side channel, single point] | 
4 | COCCNC(=O)COc1ncnc2scc(-c3ccc(F)cc3)c12 |  | inactive: 3.59%
5 | CCOc1ccc(C(=O)N/N=C/c2ccc(-c3ccc(S(=O)(=O)Nc4ncccn4)cc3)o2)cc1 | inconclusive: 11.2 µM [quencher, side channel, partial curve] | 
6 | O=C(CSc1nnc(CCCN2C(=O)c3cccc4cccc(c34)C2=O)n1-c1ccccc1)N1CCCCC1 | inconclusive: 6.31 µM [quencher, side channel, single point] | 
7 | CNc1oc(/C=C/c2cccc(OC)c2)nc1C#N | inconclusive: 14.1 µM [quencher, side channel, partial curve] | 
8 | CN(Cc1c(C(=O)N/N=C/c2cccs2)nnn1-c1nonc1N)c1ccccc1 | inconclusive: 22.4 µM [quencher, side channel, single point] | 
9 | COc1cc(/C=C2\C(=O)N(CCC#N)N=C2C)c(Br)cc1OC(C)C |  | inactive: -6.95%
10 | O=C(NCCC1=CCCCC1)c1ccc(Br)o1 |  | inactive: -2.82%
11 | CCN(C(=O)c1coc(=O)c(Br)c1)c1ccc2c(c1)OCO2 | inconclusive: 15.8 µM [quencher, side channel, partial curve] | 
12 | CCOc1ccc(C(C)NC(=O)C2CCC2)cc1 (stereo not drawn) | inconclusive: 0.891 µM [fluorescent, side channel, single point] | 
13 | COc1ccc(CCNC(=O)COc2ccc(N(C)S(=O)(=O)c3ccc(C)cc3)cc2)cc1OC |  | inactive: -4.84%
14 | O=[N+]([O-])c1c(NCCO)cc(Sc2nc3ccccc3s2)c2nonc12 | inconclusive: 8.91 µM [quencher, side channel, partial curve] | 
15 | Cc1ccc(-c2cn3nc(-c4ccccc4)c(-c4ccccc4)nc3n2)cc1 |  | inactive: 13%
16 | COc1cccc(/C=C2\Oc3cc(OCC(=O)N4Cc5ccccc5C[C@H]4C(=O)O)ccc3C2=O)c1 | inconclusive: 28.2 µM [quencher, side channel, single point] | 
17 | Nc1nnc(CC(=O)N/N=C/c2ccc(-c3ccc(F)cc3)o2)s1 | inconclusive: 25.1 µM [quencher, side channel, partial curve] | 
18 | CCN(C#N)c1nc(NC(C)C)nc(NC(C)C)n1 |  | inactive: -1.79%
19 | COc1cccc(/C=N/Nc2ncnc3c2ncn3Cc2ccccc2)c1O |  | inactive: -3.38%
20 | CCOC(=O)c1nc(Nc2ccc(C(C)=O)cc2)c2ccccc2n1 | inconclusive: 7.08 µM [quencher, side channel, partial curve] | 
21 | Cc1[nH]n(-c2ccc([N+](=O)[O-])cc2)c(=O)c1C=NCC1CCCO1 (stereo not drawn) | inconclusive: 6.31 µM [quencher, side channel, partial curve] | 

Row | Structure (SMILES) | Potency | activity change, negative = inhibition
22 | COc1cc(OC)c(C(=O)OCC(=O)NCCc2ccccc2)cc1OC |  | inactive: -5.66%
23 | COc1ccc(C2CC(c3cccs3)=NN2C(=O)CSC2=NCCS2)cc1 (stereo not drawn) | inconclusive: 22.4 µM [quencher, side channel, single point] | 
24 | CCS(=O)(=O)c1ncc(Cl)c(C(=O)Nc2ccc(C)cc2)n1 | inconclusive: 20 µM [quencher, side channel, single point] | 
25 | Cc1cccc(Nc2nnc(-c3ccc(C(=O)N4C[C@H]5C[C@H](C4)c4cccc(=O)n4C5)cc3)c3ccccc23)c1 | inconclusive: 14.1 µM [quencher, side channel, partial curve] | 
26 | O=C(NN1C(=O)c2ccccc2NC1c1ccccn1)c1ccc([N+](=O)[O-])cc1 (stereo not drawn) | inconclusive: 20 µM [quencher, side channel, partial curve] | 
27 | COc1ccc(/C=N/NC(=O)C(=O)N2CCCCCC2)cc1[N+](=O)[O-] | inconclusive: 14.1 µM [quencher, side channel, partial curve] | 
28 | CN1C(=O)c2cccc3c(N(C)C)ccc(c23)C1=O | inconclusive: 14.1 µM [quencher, partial curve] | 
29 | CC(C)(C)n1ncc2c(=O)n(CC(=O)NCc3ccccc3)cnc21 |  | inactive: -14.1%
30 | C=CCn1c(-c2ccccc2)n[nH]c1=S | inconclusive: 4.47 µM [quencher, side channel, full curve] | 
31 | O=c1oc2cc(O)ccc2cc1-c1nc2c(s1)CCc1ccccc1-2 | inconclusive: 1.26 µM [quencher, side channel, full curve] | 
32 | CC(C)OCCCNC(=O)c1cc(-c2cccs2)nc2ccccc12 | inconclusive: 15.8 µM [quencher, side channel, single point] | 
33 | COc1cccc(NC(C)C(=O)Nc2cc([N+](=O)[O-])ccc2Cl)c1 (stereo not drawn) | inconclusive: 25.1 µM [quencher, side channel, partial curve] | 
34 | CCn1c(N)nc2c1c(=O)n(C)c(=O)n2C |  | inactive: -7.16%
35 | COc1ccc(N(CC(=O)N/N=C/c2cccnc2)S(=O)(=O)c2ccc(C)cc2)cc1OC | inconclusive: 15.8 µM [quencher, side channel, partial curve] | 
36 | COc1ccc(C(=O)/C=C/c2cc(C(=O)O)cc3c2OCOC3)c(O)c1 | inconclusive: 7.08 µM [fluorescent, side channel, single point] | 
37 | COc1ccccc1/C=C/C=N/NC(=O)c1cccs1 | inconclusive: 35.5 µM [quencher, side channel, single point] | 
38 | O=c1[nH]nnc2sc3c(c12)CCCC3 | inconclusive: 31.6 µM [quencher, side channel, partial curve, poor fit] | 
39 | COc1ccc(-c2c(C(=O)O)nc3ccccc3c2C(=O)O)cc1 | inconclusive: 158 µM [inhibitor, partial curve] | 
40 | O=C1c2sc3nc4ccccc4n3c2C(=O)N1c1ccccc1Cl |  | inactive: 1.11%
41 | COc1ccc(S(=O)(=O)Nc2ccccc2OC)cc1NC(=O)Cc1cccs1 | inconclusive: 0.794 µM [quencher, side channel, single point] | 
42 | COc1ccc(O)c(/C=c2/sc3nc4cc(C)c(C)cc4n3c2=O)c1 | inconclusive: 17.8 µM [quencher, side channel, partial curve] | 

Row | Structure (SMILES) | Potency | activity change, negative = inhibition
43 | O=C(CCNC(=O)c1ccc([N+](=O)[O-])cc1)N/N=C/c1ccc(F)cc1 | inconclusive: 8.91 µM [quencher, side channel, partial curve] | 
44 | Cc1cc(OCC(=O)N2CCN(c3ccccn3)CC2)c(C)cc1Br |  | inactive: -7.44%
45 | CCC1CCCCN1C(=O)CCC(=O)Nc1nnc(C(F)(F)F)s1 (stereo not drawn) |  | inactive: -1.27%
46 | CN1CCN(c2ccc(Cl)cc2NC(=O)/C=C/c2cccc(F)c2)CC1 |  | inactive: 2.17%
47 | COC(=O)c1c(N)sc2c1CCN(c1ncc(C(F)(F)F)cc1Cl)C2 |  | inactive: -2.5%
48 | O=C(N/N=C/c1ccc(-c2ccc([N+](=O)[O-])cc2)o1)[C@H]1C[C@@H]1c1ccccc1 |  | inactive: 19.6%
49 | CCN1CCN(C(=O)CCN2C(=O)c3ccccc3C2=O)CC1 | inconclusive: 25.1 µM [quencher, side channel, single point] | 
50 | Cc1sc(NC(=O)/C=C/c2ccco2)c(C(=O)O)c1C | inconclusive: 20 µM [quencher, side channel, partial curve] | 
51 | O=[N+]([O-])c1ccc(N2CCCC2)cc1N1CCCC1 | inconclusive: 14.1 µM [quencher, partial curve] | 
52 | COC(=O)c1c(C)nc2nonc2c1N | inconclusive: 15.8 µM [quencher, side channel, partial curve] | 
53 | Cc1ccccc1S(=O)(=O)Cc1ccc(C(=O)NC(C)c2ccc3c(c2)OCCO3)o1 (stereo not drawn) | inconclusive: 251 µM [inhibitor, partial curve, poor fit] | 
54 | Cc1cccc(Nc2ccc3nonc3c2[N+](=O)[O-])c1C | inconclusive: 2.51 µM [quencher, side channel, full curve, poor fit] | 
55 | Cc1ccc2nc(/C(C#N)=C/c3ccc(-c4cccc([N+](=O)[O-])c4)o3)[nH]c2c1 | inconclusive: 2.82 µM [fluorescent, side channel, single point] | 
56 | O=C(O)CSc1cnc2ccccc2n1 | inconclusive: 28.2 µM [quencher, side channel, single point] | 
57 | O=C(O)c1cccc(N/N=C/c2ccc(F)c(F)c2)c1 |  | inactive: 20.7%
58 | O=C(c1cc(Cl)ccc1[N+](=O)[O-])N1CCc2ccccc2C1 | inconclusive: 20 µM [quencher, side channel, partial curve] | 
59 | C[C@@H]1NC(=O)[C@H](CCC(N)=O)NC(=O)c2cc([N+](=O)[O-])cc(I)c2NCC[C@@H](C(N)=O)NC1=O | inconclusive: 22.4 µM [quencher, side channel, partial curve] | 
60 | O=C(Nc1ccc2c(c1)nc1n2CCOC1)c1ccco1 |  | inactive: -9.51%
61 | Cc1ccc(CNc2ccc3c(c2)OCO3)cc1 | inconclusive: 35.5 µM [quencher, side channel, partial curve] | 
62 | O=C1c2ccccc2C(=O)N1OCCOCCOCCON1C(=O)c2ccccc2C1=O | inconclusive: 17.8 µM [quencher, side channel, partial curve] | 
63 | O=C1/C(=C/c2ccc3c(c2)OCO3)Oc2cc(OCC(=O)N3CCC[C@H]3C(=O)O)ccc21 | inconclusive: 25.1 µM [quencher, side channel, partial curve] | 
